# The campaign covered roughly 310,000 compounds. About 14,000 (4.5%) showed an effect of 50% or more. Effects have a minus sign here. The list shows a part of the results.
# Target: human ether-à-go-go-related gene (hERG) potassium channel (human, UniProt Q12809)
# Assay: primary screen, population patch clamp on CHO cells stably expressing hERG
# 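Also: peak tail current of the secondary pulse compared with the same well before compound.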
# Sequence of human ether-à-go-go-related gene (hERG) potassium channel (Q12809 whole entry, looked up): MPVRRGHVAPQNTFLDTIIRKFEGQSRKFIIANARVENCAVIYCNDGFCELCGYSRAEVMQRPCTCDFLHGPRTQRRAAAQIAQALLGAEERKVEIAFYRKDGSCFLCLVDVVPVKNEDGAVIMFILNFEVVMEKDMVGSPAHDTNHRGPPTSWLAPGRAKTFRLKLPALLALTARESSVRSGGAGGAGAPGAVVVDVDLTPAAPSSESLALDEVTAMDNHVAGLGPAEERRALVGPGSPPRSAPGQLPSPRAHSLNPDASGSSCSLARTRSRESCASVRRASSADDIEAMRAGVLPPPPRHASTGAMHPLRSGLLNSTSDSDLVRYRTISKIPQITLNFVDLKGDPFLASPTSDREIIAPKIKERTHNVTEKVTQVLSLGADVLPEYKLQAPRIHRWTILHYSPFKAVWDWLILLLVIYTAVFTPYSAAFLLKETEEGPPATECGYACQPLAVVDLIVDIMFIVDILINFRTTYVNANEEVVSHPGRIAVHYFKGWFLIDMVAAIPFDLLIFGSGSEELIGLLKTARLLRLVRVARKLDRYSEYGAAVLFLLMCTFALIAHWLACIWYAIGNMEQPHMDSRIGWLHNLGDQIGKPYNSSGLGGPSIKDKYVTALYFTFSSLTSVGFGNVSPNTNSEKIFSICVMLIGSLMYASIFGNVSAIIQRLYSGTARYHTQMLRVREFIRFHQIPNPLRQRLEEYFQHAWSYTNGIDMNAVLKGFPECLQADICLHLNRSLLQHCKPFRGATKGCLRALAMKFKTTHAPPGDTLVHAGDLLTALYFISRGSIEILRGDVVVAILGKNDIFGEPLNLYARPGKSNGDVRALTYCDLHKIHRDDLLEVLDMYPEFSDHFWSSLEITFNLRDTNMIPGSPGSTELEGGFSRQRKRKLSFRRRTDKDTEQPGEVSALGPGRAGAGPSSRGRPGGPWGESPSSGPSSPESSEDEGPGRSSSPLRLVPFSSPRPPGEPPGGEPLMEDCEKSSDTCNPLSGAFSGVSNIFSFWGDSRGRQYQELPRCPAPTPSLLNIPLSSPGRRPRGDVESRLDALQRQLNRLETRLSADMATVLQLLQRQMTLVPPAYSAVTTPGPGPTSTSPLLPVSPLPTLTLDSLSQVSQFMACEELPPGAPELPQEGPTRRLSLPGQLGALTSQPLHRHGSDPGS
row,Structure (SMILES),"hERG current change (%, negative = inhibition) at 10uM [%]"
1,O=C(Nc1ccc(F)c(Cl)c1)c1ccccc1,0.672
2,Cc1c(Cl)cccc1NC(=S)Nc1ccccn1,-9.13
3,Nc1nonc1-n1nnc(C(=O)c2ccccc2)c1-c1ccccc1,-0.617
4,CN1CCSc2ccc(C(=O)NCc3ccccc3)cc21,-9.52
5,Cc1ccc2cc(C=O)c(N3CCOCC3)nc2c1C,13.3
6,O=C(NC1CCCCC1)N1CCC(n2c(=O)[nH]c3ccccc32)CC1,2.34
7,CC(=O)Nc1ccc(Oc2ccc3c(c2)C(=O)NC3=O)cc1,24.8
8,CCc1ccc(CNc2ccc(N3CCN(C(C)=O)CC3)cc2)cc1,-11.1
9,CCOc1cc(/C=N/NC(=O)OC)ccc1OCCSc1ccc(Cl)cc1,4.75
10,Cn1c(NC(=O)C2CCCC2)cc(=O)n(C)c1=O,6.09
11,Br.COCCn1c(-c2ccccc2)csc1=Nc1cccnc1,-68.3
12,COc1ccc(N2CCN(C(=O)c3ccc(CNS(=O)(=O)c4cccc(OC)c4)cc3)CC2)cc1,-33.7
13,CC(=O)c1c(C)[nH]c(C(=O)CSc2nnc(CN3CCCCCC3=O)n2-c2ccccn2)c1C,6.65
14,CC(C(=O)c1c[nH]c2ccccc12)N1CCc2ccccc2C1 (stereo not drawn),5.34
15,COc1ccc([C@H]2[C@H](C(C)=O)N3N=Cc4ccccc4C3C23C(=O)OC(C)(C)OC3=O)cc1 (stereo partly drawn),-19.1
16,CCC1CCCCN1CCNC(=O)C1CCN(S(=O)(=O)c2cccc3nsnc23)CC1 (stereo not drawn),-43.2
17,COc1ccc(C(CC(=O)O)NC(=O)c2ccco2)cc1 (stereo not drawn),2.5
18,CCOc1ccc(-n2c(=O)c3c4c(sc3n(CC(=O)NCC3CCCO3)c2=O)CCC4)cc1 (stereo not drawn),2.64
19,NC(=O)C1CCN(C(=O)CSc2nc3c(c(-c4ccccc4)n2)CCCC3)CC1,-13.9
20,COCC(=O)NC1CCN(C(=O)Nc2ccc(Br)cc2)CC1,-12.7
21,Cc1ccc(C(=O)NCC(c2ccco2)N2CCOCC2)cc1 (stereo not drawn),9.59
22,COc1ccc(Nc2nc(N(C)c3ccccc3)nc(N)c2[N+](=O)[O-])cc1,4.76

row,Structure (SMILES),"hERG current change (%, negative = inhibition) at 10uM [%]"
1,O=C(NCCNc1nccc(C(F)(F)F)n1)c1cccs1,-11.3
2,O=[N+]([O-])c1cccc(NC(=S)NCc2ccncc2)c1,0.695
3,O=S(=O)(NC(=S)c1ccccc1)c1ccc(Cl)cc1,17.3
4,CCOC(=O)C(C)(C)N(Cc1cccc(C)c1)S(=O)(=O)c1ccc(Cl)c([N+](=O)[O-])c1,9.94
5,O=C(COc1ccc(Br)cc1)Nc1cc(S(=O)(=O)N2CCCCC2)ccc1N1CCCCC1,11.4
6,O=C(NCc1ccco1)NC12CC3CC(CC(C3)C1)C2,14.5
7,COc1ccc(C(=O)NC(=S)N2CCN(c3ccccc3OC)CC2)cc1OC,21.8
8,Cc1nnc(SCC(=O)N2c3ccccc3CC2C)[nH]c1=O (stereo not drawn),22.6
9,COc1ccc([N+](=O)[O-])cc1NC(=O)CSc1ncccn1,1.79
10,O=C(c1cccc(S(=O)(=O)N2CCOCC2)c1)N(CCc1ccccc1)Cc1ccccc1,-55.4
11,O=C(NC(Cc1ccccc1)C(=O)O)/C(=C\c1ccccc1)NC(=O)c1ccco1 (stereo not drawn),16.5
12,CC(C)[C@H](NC(=O)C1CCN(S(=O)(=O)c2ccccc2)CC1)C(=O)NCc1ccncc1,12.4
13,COC(=O)c1cc(C(=O)c2ccccc2)n2c(=O)/c(=C\N(C)C)sc12,2.57
14,C=CCSc1cc(C)nc2c(-c3ccc(Cl)cc3)c(C)nn12,-2.58
15,Cc1ccc(C(=O)COc2nc(C)nc3ccccc23)cc1,20.5
16,CCOC(=O)c1c(C)[nH]c(C(=O)CSc2nnnn2-c2ccccc2)c1C,11.8
17,COc1ccc(N2CCN(S(=O)(=O)c3cc(-c4cc(C)no4)ccc3C(C)C)CC2)cc1,4.79
18,CCN(CC)CCn1c2c(c(SCC(=O)Nc3nc(C)cs3)nc1=O)CCC2,-48.7
19,CC(C)(C)c1ccc(OCCC(=O)OCC(=O)NC2CCS(=O)(=O)C2)cc1 (stereo not drawn),-20.3
20,N#CCCCCn1c(-c2cncs2)nc2ccccc21,-40.9
21,O=c1ccc2cc(O)c(O)cc2o1,16.7
22,Cc1ccc(NC(=O)c2ccc(NCCc3ccccc3)c([N+](=O)[O-])c2)cc1F,5.24

row,Structure (SMILES),"hERG current change (%, negative = inhibition) at 10uM [%]"
1,O=C(CSc1nncn1-c1ccccc1F)NC1CCCCC1,6.01
2,O=C(COC(=O)C(Cc1ccccc1)NC(=O)c1ccccc1)c1ccccc1 (stereo not drawn),-1.84
3,CCC(SC1=N/C(=C/c2ccccc2)C(=O)N1c1ccccc1)C(=O)Nc1cc(C)on1 (stereo not drawn),5.9
4,Cc1cc(-c2ccccc2)c2c(n1)sc1c(O)cc(=O)[nH]c12,29.2
5,O=C(C1=C(O)C(=O)N(CCN2CCOCC2)C1c1cccc(F)c1)c1cc2ccccc2o1 (stereo not drawn),1.25
6,COc1ccc(/C(N)=N/OC(=O)c2ccc(Br)o2)cc1,8.81
7,COc1ccc(OC)c(NC(=O)CN2C(=O)NC3(CCCc4ccccc43)C2=O)c1 (stereo not drawn),-2.88
8,CSCCC(NC(=O)COc1ccccc1)C(=O)N(C)Cc1cccc(F)c1 (stereo not drawn),-37.9
9,O=C(/C=C/c1ccc(F)cc1)N1CCCN(C(=O)/C=C/c2ccc(F)cc2)CC1,-75.6
10,CCNC(=O)N1C(=O)C2(OCCO2)c2cc(Br)ccc21,12.2
11,CCCCSCCCNC(=O)c1ccc(CS(=O)(=O)c2ccccc2OC)o1,-41.4
12,Cc1cc(S(=O)(=O)N2CCOCC2)ccc1OCC(=O)Nc1ccccc1C(F)(F)F,12.8
13,Cn1c(Cn2nnc3ccccc32)nnc1SCC(=O)c1ccccc1F,-10.7
14,O=C(N/N=C/c1ccoc1)c1ccc(Cl)cc1Cl,10
15,Cc1ccc(Oc2cc(NC(=O)CCCn3nc([N+](=O)[O-])cc3C)cc([N+](=O)[O-])c2)cc1,9.26
16,CC(C)(CNC(=O)c1ccc(-c2ccccc2Cl)o1)N1CCOCC1,-39.9
17,CCC(=O)Nc1cccc(NC(=O)CSc2nnc(C(C)C)n2CC)c1,-9.89
18,FC(F)(F)c1cc(-c2cccs2)nc2cc(-c3ccccc3)nn12,-13.3
19,Cc1cc2oc(=O)cc(CN3CCOCC3)c2cc1O,-22.6
20,CC(C)(C)NS(=O)(=O)CC12CCC(CC1=O)C2(C)C (stereo not drawn),6.55
21,CCN(CC)S(=O)(=O)c1ccc(N/N=C(\C)c2cccnc2)nc1,-16.4
22,O=C(O)c1ccc2c(c1)C(=O)N(c1ccc(Nc3ccccc3)cc1)C2=O,20.9

row,Structure (SMILES),"hERG current change (%, negative = inhibition) at 10uM [%]"
1,CCCc1cc(=O)n2c(nc3ccccc32)[nH]1,9.3
2,Cc1ccc(C2/C(=C(\O)c3c(C)nc4ccccn34)C(=O)C(=O)N2CCN(C)C)o1 (stereo not drawn),-0.83
3,O=[N+]([O-])c1ccc(O)c(/C=N/n2c(-c3ccccc3)n[nH]c2=S)c1,17.9
4,O=C(Nc1ccccc1)NC1CCCCCCC1,-0.392
5,COc1ccc(Oc2ccc(/C=N/NC(=O)c3cccnc3)cc2[N+](=O)[O-])cc1,-19.3
6,CCCn1c(NCc2ccc(N(C)C)cc2)nc2ccccc21,-40.2
7,CCCc1[nH]nc2c1C(c1ccc(OC)c(Cn3nnc4ccccc43)c1)C(C#N)=C(N)O2 (stereo not drawn),-29.1
8,CN(C)CC1CCCCC1OC(=O)c1ccc(Cl)cc1Cl.Cl (stereo not drawn),-56.5
9,COc1ccc2nc(SCC(=O)Nc3ccc4sc(C)nc4c3)c(C#N)cc2c1,10.2
10,Cc1cc(C)n(Cc2ccc(NC(=O)c3nn(C)cc3[N+](=O)[O-])cc2)n1,1.68
11,O=C(Cn1cnc2ccccc21)NC(c1ccccc1)c1ccccc1,1.29
12,COCCNC(=O)NC(=O)CN1CCN(C(c2ccccc2)c2ccccc2)CC1,-6.84
13,CC(=O)c1c(C)[nH]c(C(=O)CSc2nnc(-c3ccco3)n2Cc2ccccc2)c1C,-61.5
14,O=C(O)C1CCC(=O)N(C2CCCCC2)C1c1ccccc1Cl (stereo not drawn),9.09
15,CCN(c1cccc(C)c1)S(=O)(=O)c1ccc(-c2cc(C)no2)s1,5.94
16,COc1ccccc1-c1nn(Cc2ccccc2)cc1/C=C/C(=O)O,0.388
17,Cc1cc(C)c(OCCCCN(C)Cc2ccccc2)c(C)c1.O=C(O)C(=O)O,-36.9
18,CCOC(=O)c1cccc(NC(=O)c2c(O)[nH]c(=O)[nH]c2=O)c1,-2.88
19,Nc1c(C(=O)c2ccc(Br)s2)oc2ccccc12,-8.01
20,CCCOc1ccc(N2C(=O)CC(NCCc3ccc(S(N)(=O)=O)cc3)C2=O)cc1 (stereo not drawn),-5.4
21,NC(=O)CNC(=O)C1CCN(S(=O)(=O)c2ccc(-n3cnnn3)cc2)CC1,-41.4

# Reference: PMC4336329 (PLoS ONE, 2015)
